In test [1] the target is Flag-YAP1 (Yes-associated protein 1) (UniProt P46937). As to the kind of experiment: co-IP; exogenous Co-IP; Flag-YAP1 and HA-CPNE3 plasmids co-transfected into HEK-293 T and BGC-823 cells; lysates incubated with anti-Flag or anti-HA beads.
In test [2] the target is GST-YAP1 fusion protein (UniProt P46937). The test is described as follows: pull-down; GST pull-down; GST-YAP1 fusion protein or GST-control on GST-agarose beads with purified His-tagged CPNE3; three washes with GST lysis buffer; western blot; both purified. (A western blot detects proteins with antibodies after separation by electrophoresis.)
Test [3] concerns the target endogenous YAP1 (Yes-associated protein 1) (human (endogenous in BGC-823)) (UniProt P46937). The test is described as follows: co-IP; endogenous Co-IP in the cytoplasmic protein lysate of BGC-823 cells.
Test [4] shares this target. As to the kind of experiment: co-IP; endogenous Co-IP in BGC-823 cells; lysates immunoprecipitated with anti-CPNE3 or anti-YAP1 polyclonal antibodies.
Test [5] shares this target. The test is described as follows: condition: only nuclear protein lysate of BGC-823 cells; co-IP; endogenous Co-IP in the nuclear protein lysate of BGC-823 cells.
Test [6] has as its target Flag-YAP1 (Yes-associated protein 1) (UniProt P46937). As to the kind of experiment: co-IP; HEK-293 T cells transfected with HA-CPNE3, Flag-YAP1 and myc-β-TRCP plasmids; CPNE3 overexpressed or down-regulated.

Chains of the proteins cited; added tags and fusions are not shown.
UniProt P46937: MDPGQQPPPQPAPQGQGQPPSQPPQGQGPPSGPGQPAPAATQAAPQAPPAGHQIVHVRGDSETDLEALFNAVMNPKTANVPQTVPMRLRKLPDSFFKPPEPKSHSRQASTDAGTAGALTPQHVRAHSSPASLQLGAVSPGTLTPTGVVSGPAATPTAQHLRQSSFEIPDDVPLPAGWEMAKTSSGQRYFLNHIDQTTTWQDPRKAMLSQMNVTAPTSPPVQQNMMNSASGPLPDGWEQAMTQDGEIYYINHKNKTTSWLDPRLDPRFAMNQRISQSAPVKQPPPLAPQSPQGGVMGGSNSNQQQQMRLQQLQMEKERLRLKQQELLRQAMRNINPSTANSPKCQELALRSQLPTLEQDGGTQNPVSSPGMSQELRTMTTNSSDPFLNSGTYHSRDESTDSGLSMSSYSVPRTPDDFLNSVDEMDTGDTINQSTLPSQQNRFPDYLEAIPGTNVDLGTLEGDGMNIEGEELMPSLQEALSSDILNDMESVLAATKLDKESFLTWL
UniProt O75131: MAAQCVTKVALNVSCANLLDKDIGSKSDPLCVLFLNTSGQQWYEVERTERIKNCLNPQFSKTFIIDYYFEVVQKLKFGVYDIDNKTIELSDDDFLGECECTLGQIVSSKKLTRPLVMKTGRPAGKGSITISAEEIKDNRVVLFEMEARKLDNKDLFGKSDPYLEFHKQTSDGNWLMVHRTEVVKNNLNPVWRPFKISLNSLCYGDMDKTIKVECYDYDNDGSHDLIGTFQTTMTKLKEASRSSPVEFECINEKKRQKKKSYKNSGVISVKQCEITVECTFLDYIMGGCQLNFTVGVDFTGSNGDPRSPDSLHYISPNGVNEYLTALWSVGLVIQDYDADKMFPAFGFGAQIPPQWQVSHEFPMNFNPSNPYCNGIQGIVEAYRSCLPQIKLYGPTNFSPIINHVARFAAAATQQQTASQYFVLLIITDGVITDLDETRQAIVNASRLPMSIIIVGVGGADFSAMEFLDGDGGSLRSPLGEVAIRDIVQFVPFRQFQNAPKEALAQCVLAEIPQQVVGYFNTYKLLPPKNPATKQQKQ
UniProt Q9Y297: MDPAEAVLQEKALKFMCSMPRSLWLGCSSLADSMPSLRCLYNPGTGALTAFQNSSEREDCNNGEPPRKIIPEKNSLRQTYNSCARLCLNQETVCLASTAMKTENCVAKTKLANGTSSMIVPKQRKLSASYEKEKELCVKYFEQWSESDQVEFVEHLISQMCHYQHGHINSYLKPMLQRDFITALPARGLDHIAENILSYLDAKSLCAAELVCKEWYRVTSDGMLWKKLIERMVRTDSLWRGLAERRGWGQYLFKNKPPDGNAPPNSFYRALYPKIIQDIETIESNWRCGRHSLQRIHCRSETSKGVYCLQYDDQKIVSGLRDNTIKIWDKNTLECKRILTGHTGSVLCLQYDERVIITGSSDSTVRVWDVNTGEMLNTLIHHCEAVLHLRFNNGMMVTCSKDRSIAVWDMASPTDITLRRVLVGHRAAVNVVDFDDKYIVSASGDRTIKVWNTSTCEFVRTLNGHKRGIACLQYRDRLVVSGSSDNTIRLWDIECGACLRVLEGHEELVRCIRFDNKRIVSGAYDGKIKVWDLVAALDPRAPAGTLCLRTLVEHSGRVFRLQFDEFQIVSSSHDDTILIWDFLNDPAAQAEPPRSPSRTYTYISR

The text below walks through data of paper PMC10944813.

Results are given in words; binding and its absence hold for the method and conditions named. For part of these data: Binding seen in cells or lysates may run through a third protein. Some entries that bind do so weakly or less than the wild type.

In the case of “HA-CPNE3 (Copine III) (from UniProt O75131 1-537)”, the binding entry in test [1] was “binds”.

On to “His-tagged CPNE3 (from UniProt O75131 1-537)”, for which, in test [2], the binding result is “binds”.

For the substance “endogenous CPNE3 (Copine III) (from UniProt O75131 1-537)”, the values for the binding result in test [3], in test [4] and in test [5] were “binds”, “binds” and “no binding”, respectively.

Regarding “myc-β-TRCP (β-transducin repeat-containing protein) (from UniProt Q9Y297 1-605)”, the binding entry in test [6] is given as “binds”.
